Assay results from PMC12820563.
This is one part of the list. The list includes weakly bound sequences.

target: T1, MBP-FoxP3dN (UniProt Q99JB6); experiment: PD-seq (MBP pull-down with sequencing); conditions: 20 mM Tris-HCl pH 7.5, 100 mM NaCl, 1.5 mM MgCl2, 0.4 uM protein, 0.1 uM dsDNA library, 30 min, room temperature, amylose pull-down; high values mean tight binding; double strand, one strand shown
T1 sequence: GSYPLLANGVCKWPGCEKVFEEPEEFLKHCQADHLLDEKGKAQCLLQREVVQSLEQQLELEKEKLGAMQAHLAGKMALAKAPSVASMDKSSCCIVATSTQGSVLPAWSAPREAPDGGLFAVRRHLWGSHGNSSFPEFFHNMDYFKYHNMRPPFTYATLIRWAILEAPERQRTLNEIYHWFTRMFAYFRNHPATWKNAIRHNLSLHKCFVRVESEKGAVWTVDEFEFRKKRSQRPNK

Sequence | binding signal (RPM ratio (pull-down/input))
GATGATTGTTCTCCCAGCTGATGAATTACTACCTTCGAGTAAACAAATTTTCCTAATCTTTCTGTTCAAGCGCCATCTAC | 0.368
GATGATTGTTCTCCCAGCTGATGAATTTTATGAATCGAGTAAACAAATTTTCCTAATCTTTCTGTTCAAGCGCCATCTAC | 0.331
GATGATTGTTCTCCCAGCTGATGAATTGGGAGTCTCGAGTAAACAAATTTTCCTAATCTTTCTGTTCAAGCGCCATCTAC | 0.948
GATGATTGTTCTCCCAGCTGATGAATTGCTCCACTCGAGTAAACAAATTTTCCTAATCTTTCTGTTCAAGCGCCATCTAC | 0.477
GATGATTGTTCTCCCAGCTGATGAATTAGGCTACTCGAGTAAACAAATTTTCCTAATCTTTCTGTTCAAGCGCCATCTAC | 1.44
GATGATTGTTCTCCCAGCTGATGAATTACGTGCTTCGAGTAAACAAATTTTCCTAATCTTTCTGTTCAAGCGCCATCTAC | 0.637
GATGATTGTTCTCCCAGCTGATGAATTACGTGGGTCGAGTAAACAAATTTTCCTAATCTTTCTGTTCAAGCGCCATCTAC | 0.527
GATGATTGTTCTCCCAGCTGATGAATTACGCAGATCGAGTAAACAAATTTTCCTAATCTTTCTGTTCAAGCGCCATCTAC | 0.504
GATGATTGTTCTCCCAGCTGATGAATTACAAGTCTCGAGTAAACAAATTTTCCTAATCTTTCTGTTCAAGCGCCATCTAC | 0.573
GATGATTGTTCTCCCAGCTGATGAATTGTTGGTGTCGAGTAAACAAATTTTCCTAATCTTTCTGTTCAAGCGCCATCTAC | 4.72
GATGATTGTTCTCCCAGCTGATGAATTAACGCCTTCGAGTAAACAAATTTTCCTAATCTTTCTGTTCAAGCGCCATCTAC | 2.79
GATGATTGTTCTCCCAGCTGATGAATTCGGTTTCTCGAGTAAACAAATTTTCCTAATCTTTCTGTTCAAGCGCCATCTAC | 1.31
GATGATTGTTCTCCCAGCTGATGAATTGATTAGGTCGAGTAAACAAATTTTCCTAATCTTTCTGTTCAAGCGCCATCTAC | 0.663
GATGATTGTTCTCCCAGCTGATGAATTTACATCTTCGAGTAAACAAATTTTCCTAATCTTTCTGTTCAAGCGCCATCTAC | 0.678
GATGATTGTTCTCCCAGCTGATGAATTTTTGCGGTCGAGTAAACAAATTTTCCTAATCTTTCTGTTCAAGCGCCATCTAC | 0.357
GATGATTGTTCTCCCAGCTGATGAATTACGACTATCGAGTAAACAAATTTTCCTAATCTTTCTGTTCAAGCGCCATCTAC | 0.727
GATGATTGTTCTCCCAGCTGATGAATTGCACTGTTCGAGTAAACAAATTTTCCTAATCTTTCTGTTCAAGCGCCATCTAC | 1.07
GATGATTGTTCTCCCAGCTGATGAATTCCCGGGGTCGAGTAAACAAATTTTCCTAATCTTTCTGTTCAAGCGCCATCTAC | 0.178
GATGATTGTTCTCCCAGCTGATGAATTGAGATAATCGAGTAAACAAATTTTCCTAATCTTTCTGTTCAAGCGCCATCTAC | 0.341
GATGATTGTTCTCCCAGCTGATGAATTTCTTGCGTCGAGTAAACAAATTTTCCTAATCTTTCTGTTCAAGCGCCATCTAC | 0.535
GATGATTGTTCTCCCAGCTGATGAATTTTCTAGATCGAGTAAACAAATTTTCCTAATCTTTCTGTTCAAGCGCCATCTAC | 0.194

Sequence | binding signal (RPM ratio (pull-down/input))
GATGATTGTTCTCCCAGCTGATGAATTCGTAGGTTCGAGTAAACAAATTTTCCTAATCTTTCTGTTCAAGCGCCATCTAC | 0.632
GATGATTGTTCTCCCAGCTGATGAATTTGCAAAGTCGAGTAAACAAATTTTCCTAATCTTTCTGTTCAAGCGCCATCTAC | 0.313
GATGATTGTTCTCCCAGCTGATGAATTCGGTTGGTCGAGTAAACAAATTTTCCTAATCTTTCTGTTCAAGCGCCATCTAC | 1.95
GATGATTGTTCTCCCAGCTGATGAATTGTATGCCTCGAGTAAACAAATTTTCCTAATCTTTCTGTTCAAGCGCCATCTAC | 2.07
GATGATTGTTCTCCCAGCTGATGAATTGTCATTATCGAGTAAACAAATTTTCCTAATCTTTCTGTTCAAGCGCCATCTAC | 1.22
GATGATTGTTCTCCCAGCTGATGAATTACGCCTATCGAGTAAACAAATTTTCCTAATCTTTCTGTTCAAGCGCCATCTAC | 2.64
GATGATTGTTCTCCCAGCTGATGAATTATACCTGTCGAGTAAACAAATTTTCCTAATCTTTCTGTTCAAGCGCCATCTAC | 0.42
GATGATTGTTCTCCCAGCTGATGAATTCCTATACTCGAGTAAACAAATTTTCCTAATCTTTCTGTTCAAGCGCCATCTAC | 0.361
GATGATTGTTCTCCCAGCTGATGAATTACGCGCGTCGAGTAAACAAATTTTCCTAATCTTTCTGTTCAAGCGCCATCTAC | 1.87
GATGATTGTTCTCCCAGCTGATGAATTATTTAAGTCGAGTAAACAAATTTTCCTAATCTTTCTGTTCAAGCGCCATCTAC | 0.317
GATGATTGTTCTCCCAGCTGATGAATTGATTCATTCGAGTAAACAAATTTTCCTAATCTTTCTGTTCAAGCGCCATCTAC | 0.392
GATGATTGTTCTCCCAGCTGATGAATTCAAGCATTCGAGTAAACAAATTTTCCTAATCTTTCTGTTCAAGCGCCATCTAC | 4.27
GATGATTGTTCTCCCAGCTGATGAATTTCATTTGTCGAGTAAACAAATTTTCCTAATCTTTCTGTTCAAGCGCCATCTAC | 2.23
GATGATTGTTCTCCCAGCTGATGAATTCGCTAAGTCGAGTAAACAAATTTTCCTAATCTTTCTGTTCAAGCGCCATCTAC | 0.247
GATGATTGTTCTCCCAGCTGATGAATTTTTGGGATCGAGTAAACAAATTTTCCTAATCTTTCTGTTCAAGCGCCATCTAC | 0.223
GATGATTGTTCTCCCAGCTGATGAATTGGGTATGTCGAGTAAACAAATTTTCCTAATCTTTCTGTTCAAGCGCCATCTAC | 1.31
GATGATTGTTCTCCCAGCTGATGAATTAATTGTATCGAGTAAACAAATTTTCCTAATCTTTCTGTTCAAGCGCCATCTAC | 2.09
GATGATTGTTCTCCCAGCTGATGAATTTGCACGCTCGAGTAAACAAATTTTCCTAATCTTTCTGTTCAAGCGCCATCTAC | 0.749
GATGATTGTTCTCCCAGCTGATGAATTGTCTCCCTCGAGTAAACAAATTTTCCTAATCTTTCTGTTCAAGCGCCATCTAC | 0.385
GATGATTGTTCTCCCAGCTGATGAATTGTCGAGTTCGAGTAAACAAATTTTCCTAATCTTTCTGTTCAAGCGCCATCTAC | 0.479
GATGATTGTTCTCCCAGCTGATGAATTACGAGACTCGAGTAAACAAATTTTCCTAATCTTTCTGTTCAAGCGCCATCTAC | 0.531

Sequence | binding signal (RPM ratio (pull-down/input))
GATGATTGTTCTCCCAGCTGATGAATTGGTAAAGTCGAGTAAACAAATTTTCCTAATCTTTCTGTTCAAGCGCCATCTAC | 0.275
GATGATTGTTCTCCCAGCTGATGAATTCCAACAGTCGAGTAAACAAATTTTCCTAATCTTTCTGTTCAAGCGCCATCTAC | 0.296
GATGATTGTTCTCCCAGCTGATGAATTCAGCTATTCGAGTAAACAAATTTTCCTAATCTTTCTGTTCAAGCGCCATCTAC | 1.78
GATGATTGTTCTCCCAGCTGATGAATTCTACGATTCGAGTAAACAAATTTTCCTAATCTTTCTGTTCAAGCGCCATCTAC | 0.257
GATGATTGTTCTCCCAGCTGATGAATTAAAGACATCGAGTAAACAAATTTTCCTAATCTTTCTGTTCAAGCGCCATCTAC | 0.385
GATGATTGTTCTCCCAGCTGATGAATTCCCCCAGTCGAGTAAACAAATTTTCCTAATCTTTCTGTTCAAGCGCCATCTAC | 0.148
GATGATTGTTCTCCCAGCTGATGAATTTAGAAATTCGAGTAAACAAATTTTCCTAATCTTTCTGTTCAAGCGCCATCTAC | 0.524
GATGATTGTTCTCCCAGCTGATGAATTCCGGGCATCGAGTAAACAAATTTTCCTAATCTTTCTGTTCAAGCGCCATCTAC | 0.549
GATGATTGTTCTCCCAGCTGATGAATTACATTTTTCGAGTAAACAAATTTTCCTAATCTTTCTGTTCAAGCGCCATCTAC | 0.69
GATGATTGTTCTCCCAGCTGATGAATTCCTCGTATCGAGTAAACAAATTTTCCTAATCTTTCTGTTCAAGCGCCATCTAC | 0.403
GATGATTGTTCTCCCAGCTGATGAATTCCGTTATTCGAGTAAACAAATTTTCCTAATCTTTCTGTTCAAGCGCCATCTAC | 2.48
GATGATTGTTCTCCCAGCTGATGAATTTGTCTGTTCGAGTAAACAAATTTTCCTAATCTTTCTGTTCAAGCGCCATCTAC | 3.84
GATGATTGTTCTCCCAGCTGATGAATTTTAAGGATCGAGTAAACAAATTTTCCTAATCTTTCTGTTCAAGCGCCATCTAC | 0.237
GATGATTGTTCTCCCAGCTGATGAATTCGGAGTTTCGAGTAAACAAATTTTCCTAATCTTTCTGTTCAAGCGCCATCTAC | 1.13
GATGATTGTTCTCCCAGCTGATGAATTAAGGTACTCGAGTAAACAAATTTTCCTAATCTTTCTGTTCAAGCGCCATCTAC | 0.521
GATGATTGTTCTCCCAGCTGATGAATTCTCATTTTCGAGTAAACAAATTTTCCTAATCTTTCTGTTCAAGCGCCATCTAC | 0.447
GATGATTGTTCTCCCAGCTGATGAATTAACTGTGTCGAGTAAACAAATTTTCCTAATCTTTCTGTTCAAGCGCCATCTAC | 0.556
GATGATTGTTCTCCCAGCTGATGAATTGGATCCCTCGAGTAAACAAATTTTCCTAATCTTTCTGTTCAAGCGCCATCTAC | 0.245
GATGATTGTTCTCCCAGCTGATGAATTTGCTCCATCGAGTAAACAAATTTTCCTAATCTTTCTGTTCAAGCGCCATCTAC | 0.472
GATGATTGTTCTCCCAGCTGATGAATTAGGTCACTCGAGTAAACAAATTTTCCTAATCTTTCTGTTCAAGCGCCATCTAC | 0.628
GATGATTGTTCTCCCAGCTGATGAATTTCACGATTCGAGTAAACAAATTTTCCTAATCTTTCTGTTCAAGCGCCATCTAC | 0.263
